The results in this text go back to article PMC4775073.

Protein sequences, listed by entry. Tags and fused reporters are not part of them. Lines headed by an entry give the natural chain unless they say otherwise; changes in a name come on top. Chains listed by the source or under a name are the forms on record and can include a tag or linker.
UniProt Q07157: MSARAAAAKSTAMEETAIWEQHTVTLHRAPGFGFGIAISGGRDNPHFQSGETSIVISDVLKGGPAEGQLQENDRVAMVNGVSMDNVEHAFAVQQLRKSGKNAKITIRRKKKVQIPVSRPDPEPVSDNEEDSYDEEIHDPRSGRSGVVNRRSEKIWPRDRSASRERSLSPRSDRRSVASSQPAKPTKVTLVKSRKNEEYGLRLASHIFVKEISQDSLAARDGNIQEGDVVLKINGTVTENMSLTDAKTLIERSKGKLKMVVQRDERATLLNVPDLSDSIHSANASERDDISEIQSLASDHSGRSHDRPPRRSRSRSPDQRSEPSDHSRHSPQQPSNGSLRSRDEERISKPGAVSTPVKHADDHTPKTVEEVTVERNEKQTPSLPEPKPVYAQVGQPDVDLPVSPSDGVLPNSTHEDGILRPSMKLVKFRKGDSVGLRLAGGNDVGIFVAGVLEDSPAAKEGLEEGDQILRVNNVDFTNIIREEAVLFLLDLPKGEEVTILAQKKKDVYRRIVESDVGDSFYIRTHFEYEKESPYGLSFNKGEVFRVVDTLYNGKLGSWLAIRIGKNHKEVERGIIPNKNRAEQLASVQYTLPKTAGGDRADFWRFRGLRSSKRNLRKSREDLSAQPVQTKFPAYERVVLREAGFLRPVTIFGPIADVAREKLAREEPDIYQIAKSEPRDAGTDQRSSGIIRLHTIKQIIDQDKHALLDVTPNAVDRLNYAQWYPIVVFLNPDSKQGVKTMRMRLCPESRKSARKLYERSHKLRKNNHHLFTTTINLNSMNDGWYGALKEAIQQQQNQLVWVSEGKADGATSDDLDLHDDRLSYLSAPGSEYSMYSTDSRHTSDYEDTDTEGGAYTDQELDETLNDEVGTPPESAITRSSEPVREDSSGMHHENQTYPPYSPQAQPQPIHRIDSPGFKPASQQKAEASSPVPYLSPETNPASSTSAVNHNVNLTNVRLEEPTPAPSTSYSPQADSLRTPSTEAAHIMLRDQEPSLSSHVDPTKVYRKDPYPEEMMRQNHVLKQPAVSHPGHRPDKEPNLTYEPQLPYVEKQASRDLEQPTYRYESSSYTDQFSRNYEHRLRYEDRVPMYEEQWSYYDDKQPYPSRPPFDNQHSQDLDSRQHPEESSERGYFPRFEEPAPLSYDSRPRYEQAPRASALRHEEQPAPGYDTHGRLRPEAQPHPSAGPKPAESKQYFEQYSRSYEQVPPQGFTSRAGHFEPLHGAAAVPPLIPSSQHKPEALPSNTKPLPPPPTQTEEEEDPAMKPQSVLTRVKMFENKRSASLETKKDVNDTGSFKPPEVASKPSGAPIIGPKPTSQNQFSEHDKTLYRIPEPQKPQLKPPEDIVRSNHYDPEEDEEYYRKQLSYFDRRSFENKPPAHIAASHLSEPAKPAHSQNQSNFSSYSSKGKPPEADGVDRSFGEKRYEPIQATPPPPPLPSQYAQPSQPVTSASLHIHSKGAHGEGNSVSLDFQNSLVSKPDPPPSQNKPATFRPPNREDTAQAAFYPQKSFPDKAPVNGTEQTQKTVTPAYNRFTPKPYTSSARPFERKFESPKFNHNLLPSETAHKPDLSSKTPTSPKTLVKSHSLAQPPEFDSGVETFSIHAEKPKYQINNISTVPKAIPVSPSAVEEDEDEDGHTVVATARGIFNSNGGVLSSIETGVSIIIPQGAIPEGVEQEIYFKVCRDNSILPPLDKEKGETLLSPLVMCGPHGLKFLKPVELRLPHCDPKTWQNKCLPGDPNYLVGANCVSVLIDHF
ZO1-∆PDZ3-EYFP (Q07157, form named): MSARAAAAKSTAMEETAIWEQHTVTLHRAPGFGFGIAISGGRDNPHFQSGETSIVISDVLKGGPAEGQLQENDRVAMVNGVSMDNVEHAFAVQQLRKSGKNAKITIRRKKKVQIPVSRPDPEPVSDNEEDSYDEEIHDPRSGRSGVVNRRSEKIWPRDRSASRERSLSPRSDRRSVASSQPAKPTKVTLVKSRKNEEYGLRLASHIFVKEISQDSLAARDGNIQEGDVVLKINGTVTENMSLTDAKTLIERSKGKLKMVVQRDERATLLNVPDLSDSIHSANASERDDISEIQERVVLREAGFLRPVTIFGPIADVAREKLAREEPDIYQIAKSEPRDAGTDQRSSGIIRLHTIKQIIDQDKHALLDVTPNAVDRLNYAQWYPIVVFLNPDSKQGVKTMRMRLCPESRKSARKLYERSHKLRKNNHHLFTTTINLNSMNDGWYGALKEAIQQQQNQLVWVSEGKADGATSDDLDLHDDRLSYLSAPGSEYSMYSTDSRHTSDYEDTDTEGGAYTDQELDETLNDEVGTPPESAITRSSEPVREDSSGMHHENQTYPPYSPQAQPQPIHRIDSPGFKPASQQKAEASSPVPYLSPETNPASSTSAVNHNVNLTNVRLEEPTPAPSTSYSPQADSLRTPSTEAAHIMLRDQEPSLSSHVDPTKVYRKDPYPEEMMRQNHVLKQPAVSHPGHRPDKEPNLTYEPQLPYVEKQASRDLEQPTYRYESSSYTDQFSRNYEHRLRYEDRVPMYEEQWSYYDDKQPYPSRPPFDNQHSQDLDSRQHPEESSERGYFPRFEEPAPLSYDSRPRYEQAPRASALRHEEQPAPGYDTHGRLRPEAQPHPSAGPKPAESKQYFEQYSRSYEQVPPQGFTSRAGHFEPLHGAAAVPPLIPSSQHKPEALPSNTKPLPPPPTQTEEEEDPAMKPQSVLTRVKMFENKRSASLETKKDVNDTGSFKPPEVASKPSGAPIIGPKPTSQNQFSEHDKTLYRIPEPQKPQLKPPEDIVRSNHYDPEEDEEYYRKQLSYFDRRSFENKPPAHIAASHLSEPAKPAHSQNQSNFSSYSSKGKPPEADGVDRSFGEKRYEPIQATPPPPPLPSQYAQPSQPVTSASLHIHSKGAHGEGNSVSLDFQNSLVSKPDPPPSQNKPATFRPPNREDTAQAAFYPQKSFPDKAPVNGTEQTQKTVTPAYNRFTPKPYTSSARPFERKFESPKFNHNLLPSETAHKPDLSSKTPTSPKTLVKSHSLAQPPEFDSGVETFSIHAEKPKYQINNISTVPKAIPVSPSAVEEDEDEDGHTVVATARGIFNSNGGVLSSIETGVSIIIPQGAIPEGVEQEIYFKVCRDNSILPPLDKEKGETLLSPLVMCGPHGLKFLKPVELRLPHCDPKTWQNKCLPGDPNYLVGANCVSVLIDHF

In one assay the target is T1, CTRwt-ECFP (human) (UniProt P30988).
T1 sequence: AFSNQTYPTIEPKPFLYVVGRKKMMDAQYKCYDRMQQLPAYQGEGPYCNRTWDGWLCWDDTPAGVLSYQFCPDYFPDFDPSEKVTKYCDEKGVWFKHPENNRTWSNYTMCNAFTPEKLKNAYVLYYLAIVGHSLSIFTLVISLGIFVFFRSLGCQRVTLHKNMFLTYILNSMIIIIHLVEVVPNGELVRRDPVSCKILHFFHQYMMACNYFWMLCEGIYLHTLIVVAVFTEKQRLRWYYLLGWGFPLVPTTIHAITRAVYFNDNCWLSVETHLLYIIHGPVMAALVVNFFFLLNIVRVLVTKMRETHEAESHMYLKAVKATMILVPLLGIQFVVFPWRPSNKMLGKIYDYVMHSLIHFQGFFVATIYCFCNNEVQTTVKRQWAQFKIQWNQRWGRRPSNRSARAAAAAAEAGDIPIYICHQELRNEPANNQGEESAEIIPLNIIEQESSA
In words: FRET or BRET; acceptor photobleaching FRET microscopy in live PC-31 cells co-transfected with CTR-ECFP and ZO-1-EYFP constructs, room temperature, with or without 50 nM CT.

The target of another assay is T2, CTR∆ESS-ECFP (human) (UniProt P30988).
T2 sequence: T1 sequence with E447A, S448A, S449A
The assay is described as above.

Assay [1] concerns the target T3, Calcitonin receptor (CTR), endogenous (human (endogenous in LNCaP cells and human prostate tumors)) (UniProt P30988).
T3 sequence: T1 sequence
In words: proximity ligation; in situ PLA (Duolink) on fixed PC cells (PC-3CTRwt, PC-3CTR∆ESS, LNCaP) with anti-ZO-1 and anti-CTR sera; with/without 50 nM CT for 30 seconds; dots per cell counted.

Assay [2] has as its target T3, Calcitonin receptor (CTR), endogenous (human (endogenous in LNCaP cells and human prostate tumors)). The assay can be described thus: co-IP; snap-frozen human prostate tumor specimens homogenized (10 mg); CTR immunoprecipitated from the clarified supernatant with rabbit anti-CTR serum; ZO-1 immunoblot.
Assay [3] has the same target. The assay can be described thus: proximity ligation; in situ PLA (Duolink) on fixed LNCaP cells not stimulated with CT (LNCaP express CTR but not CT).

Where a chain is given by its changes, count along the chain named. Results are given in words; binding and its absence hold for the method and conditions named. Binding seen in cells or lysates may run through a third protein. Some binding calls cover weakened binding; strength is not graded here. For some assays here: Sequences can lack the tags named with a protein.

With “ZO1-∆PDZ3-EYFP (from UniProt Q07157 1-1748)”, the binding entry with CTRwt-ECFP (human) is given as “no binding”.

For “ZO-1wt-EYFP (from UniProt Q07157 1-1748)”, the binding entry in the assay with CTR∆ESS-ECFP (human) is reported as “no binding”. Consider “Zonula Occludens-1 (ZO-1), endogenous (from UniProt Q07157 1-1748)”, for which the binding result in assay [1] is reported as “binds”; in assay [2], “binds”; in assay [3], “no binding (condition: cells not stimulated with CT)”.
